Among all 39,000 compounds or so, about 220 (0.56%) showed activity. Some of the results follow.
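Also: static incubation at 37 °C against the wild-type strain, values averaged over two biological replicates.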

The experiment has as its system Escherichia coli K-12 BW25113. The experiment can be described thus: relative growth (OD600 normalised to plate interquartile mean) (fraction); higher = less growth inhibition, active = 0.2 or less. As to conditions: 50 µM; LB; incubation time: overnight (16-24 h).
In the case of `COCC#Cc1ccc2c(c1)O[C@H](CN(C)C(=O)C1CCOCC1)[C@@H](C)CN([C@@H](C)CO)S2(=O)=O`, the relative growth was inactive: 1.01. Regarding `C[C@@H]1CN([C@H](C)CO)C(=O)c2cc(NC(=O)Nc3ccc(F)cc3)ccc2O[C@@H](C)CCCCO[C@H]1CN(C)S(=O)(=O)c1ccc(Cl)cc1`, the relative growth was inactive: 1.01. For `C[C@H](CO)N1C[C@H](C)[C@H](CN(C)C(=O)c2cnccn2)Oc2cc(C#CCC3CCCC3)ccc2S1(=O)=O`, the relative growth was inactive: 1.

For the molecule `C[C@H]1CN([C@@H](C)CO)C(=O)Cc2cc(NC(=O)CCCN(C)C)ccc2O[C@@H]1CN(C)C(=O)NC1CCCCC1`, the relative growth is inactive: 0.993. Take `C[C@@H]1CN([C@H](C)CO)C(=O)c2cc(NC(=O)Nc3cccc4ccccc34)ccc2O[C@@H]1CN(C)C(=O)Nc1ccccc1`: the relative growth is inactive: 1.04. Consider `Cc1cn2c(=O)c(C(=O)O)cnc2s1`, for which the relative growth is inactive: 0.979. As for `OC[C@H]1O[C@H](O[C@H]2O[C@H](CO)[C@@H](O)[C@H](O)[C@H]2O)[C@H](O)[C@@H](O)[C@@H]1O`, the figure is inactive: 0.986; as for `OC[C@@H](O)[C@@H](O[C@@H]1O[C@H](CO)[C@@H](O)[C@H](O)[C@H]1O)[C@H](O)[C@@H](O)CO`, inactive: 1.01; as for `CN[C@@H]1[C@@H](O[C@H]2O[C@H](CO)[C@@H](N)[C@H](O)[C@H]2O)O[C@H]2C[C@@H](N)[C@H](O[C@H]3[C@H](O)[C@@H](O)[C@H](N)C[C@@H]3N)O[C@@H]2[C@@H]1O`, inactive: 0.978. In the case of `C[C@H]1CN([C@@H](C)CO)C(=O)c2cccc(NS(C)(=O)=O)c2O[C@H]1CN(C)C(=O)Nc1ccccc1`, the relative growth is inactive: 0.982. The figure for `C[C@@H]1CCCCO[C@H](CN(C)S(=O)(=O)c2ccccc2)[C@@H](C)CN([C@H](C)CO)C(=O)c2cc(NC(=O)Nc3ccccc3)ccc2O1` is inactive: 1.03; for `CC(=O)N1CCN(c2ccnc3c2c(=O)n(CC(=O)NC(C)(C)C)c(=O)n3C)CC1` it is inactive: 0.979. As for `CC(=O)n1nc(-c2cccnc2)nc1N`, the figure is inactive: 1.02; as for `C[C@H]1CN([C@@H](C)CO)C(=O)c2c(c3ccccc3n2C)-c2ccccc2CO[C@H]1CN(C)Cc1cccc(F)c1`, inactive: 0.992; as for `Cc1noc(C)c1NC(=O)N(C)C[C@@H]1OCCCC[C@@H](C)Oc2ccc(NC(=O)Cc3ccccc3)cc2C(=O)N([C@@H](C)CO)C[C@H]1C`, inactive: 0.958. As to `C[C@H]1CN([C@@H](C)CO)C(=O)c2cccc(NC(=O)c3ccc(-c4nccs4)cc3)c2O[C@H]1CN(C)Cc1ccc(C(=O)O)cc1`, the relative growth is inactive: 1. The figure for `Cc1ccc(S(=O)(=O)Nc2ccc3c(c2)C(=O)N([C@H](C)CO)C[C@H](C)[C@H](CN(C)S(=O)(=O)c2ccccc2)O3)cc1` is inactive: 1; for `C[C@H](CO)N1C[C@H](C)[C@H](CN(C)S(=O)(=O)c2ccc(Cl)cc2)OCCCC[C@H](C)Oc2ccc(NS(=O)(=O)c3ccc(F)cc3)cc2C1=O` it is inactive: 1.02. The figure for `C[C@@H]1CN([C@H](C)CO)S(=O)(=O)c2ccc(-c3cncnc3)cc2O[C@H]1CN(C)C(=O)Cc1cccnc1` is inactive: 0.98; for `CC(=O)O[C@@H]1C[C@@H]2CC[C@@]1(C)C2(C)C` it is inactive: 0.977; for `CN(C)CCCNC(=O)C[C@H]1CC[C@H]2[C@@H](COC[C@H](O)CN2C(=O)Nc2cc(Cl)cc(Cl)c2)O1` it is inactive: 0.995. Turning to `COc1ccc(NC(=O)N(C)C[C@@H]2Oc3ccc(NS(=O)(=O)c4cn(C)cn4)cc3CC(=O)N([C@@H](C)CO)C[C@@H]2C)cc1`, the relative growth was inactive: 1.01. Regarding `COc1ccc(CN(C)C[C@H]2OCCCC[C@H](C)Oc3ccc(NS(=O)(=O)c4ccc(F)cc4)cc3C(=O)N([C@H](C)CO)C[C@@H]2C)cc1`, the relative growth was inactive: 1.01. As for `Cc1ccc(S(=O)(=O)N2C[C@H](O)COC[C@@H]3O[C@H](CC(=O)NCc4ccc(Cl)c(Cl)c4)CC[C@H]32)cc1`, the figure is inactive: 0.966; as for `C[C@@H]1CN([C@H](C)CO)C(=O)c2cc(NC(=O)NC3CCCCC3)ccc2O[C@@H]1CN(C)Cc1ccc(Oc2ccccc2)cc1`, inactive: 1.03; as for `CN(C)C(=O)C[C@@H]1C=C[C@@H](NC(=O)C2CCOCC2)[C@@H](CO)O1`, inactive: 1.02. As for `C[C@@H]1CN([C@H](C)CO)C(=O)CCCn2cc(nn2)CO[C@H]1CN(C)C(=O)Nc1cccc(Oc2ccccn2)c1`, the figure is inactive: 0.992. The figure for `C[C@@H]1CN([C@@H](C)CO)C(=O)c2cc(N(C)C)ccc2O[C@@H](C)CCCCO[C@@H]1CN(C)S(C)(=O)=O` is inactive: 1.01; for `C[C@H](CO)N1C[C@H](C)[C@H](CN(C)C(=O)Nc2ccc(C(F)(F)F)cc2)Oc2ccc(NS(=O)(=O)c3ccc(Cl)cc3)cc2C1=O` it is inactive: 1.01. Consider `COc1ccc(NC(=O)Nc2ccc3c(c2)C(=O)N([C@@H](C)CO)C[C@@H](C)[C@@H](CN(C)Cc2ccc(C(F)(F)F)cc2)OCCCC[C@@H](C)O3)cc1`, for which the relative growth is inactive: 0.971. The figure for `COc1ccc(S(=O)(=O)N2CCCN(S(=O)(=O)c3ccc(OC)c(OC)c3)CC2)cc1OC` is inactive: 0.973; for `COc1ccc(S(=O)(=O)Nc2ccc3c(c2)C(=O)N([C@H](C)CO)C[C@@H](C)[C@H](CN(C)C(=O)Nc2ccccc2)OCCCC[C@H](C)O3)cc1` it is inactive: 1.03. With `C[C@H]1CN([C@@H](C)CO)C(=O)c2cc(NS(=O)(=O)c3ccccc3)ccc2O[C@@H]1CN(C)CC1CC1`, the relative growth is inactive: 0.98.

Regarding `C[C@@H]1CCCCO[C@H](CN(C)C(=O)Cc2ccccc2)[C@H](C)CN([C@@H](C)CO)C(=O)c2cc(NC(=O)Nc3ccc(C(F)(F)F)cc3)ccc2O1`, the relative growth was inactive: 1.03. With `C[C@@H]1CN([C@@H](C)CO)S(=O)(=O)c2ccc(-c3ccncc3)cc2O[C@H]1CN(C)C(=O)c1cccc(F)c1`, the relative growth is inactive: 1.03.

`C[C@H](CO)N1C[C@H](C)[C@@H](CN(C)Cc2ccc3c(c2)OCO3)Oc2ccc(NC(=O)Nc3cccc4ccccc34)cc2C1=O`: the relative growth is inactive: 1.03. Turning to `COc1ccc(cc1)S(=O)(=O)N1C[C@]2(C1)CN([C@H](CO)c1c2c2ccc(cc2n1C)OC)C(=O)CN(C)C`, the relative growth is inactive: 0.987.

Values taken from the supplement of paper PMC9446081.
